Over roughly 110,000 compounds, “z-score” has its median near -0.1; the highest 2% begin near 2. The list shows a part of the results. Active and inactive are the calls of the source.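 How the source made its calls: active means z-score in the third read window above 3 or below -3; inactive means the rest.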
Target: Metabotropic glutamate receptor 8 (Rattus norvegicus) (UniProt P70579)
Assay: rat mGluR8 modulators via GIRK flux, primary screen, cell-based, thallium flux, HTS (AID 488969)
Settings: HEK293 rat mGluR8, GIRK (G protein-gated inwardly rectifying potassium channel) thallium flux, FluoZin2; at 10 µM; stronger effect = higher value; submaximal glutamate (EC20) added with thallium

Chain of UniProt P70579 (P70579 whole entry, looked up): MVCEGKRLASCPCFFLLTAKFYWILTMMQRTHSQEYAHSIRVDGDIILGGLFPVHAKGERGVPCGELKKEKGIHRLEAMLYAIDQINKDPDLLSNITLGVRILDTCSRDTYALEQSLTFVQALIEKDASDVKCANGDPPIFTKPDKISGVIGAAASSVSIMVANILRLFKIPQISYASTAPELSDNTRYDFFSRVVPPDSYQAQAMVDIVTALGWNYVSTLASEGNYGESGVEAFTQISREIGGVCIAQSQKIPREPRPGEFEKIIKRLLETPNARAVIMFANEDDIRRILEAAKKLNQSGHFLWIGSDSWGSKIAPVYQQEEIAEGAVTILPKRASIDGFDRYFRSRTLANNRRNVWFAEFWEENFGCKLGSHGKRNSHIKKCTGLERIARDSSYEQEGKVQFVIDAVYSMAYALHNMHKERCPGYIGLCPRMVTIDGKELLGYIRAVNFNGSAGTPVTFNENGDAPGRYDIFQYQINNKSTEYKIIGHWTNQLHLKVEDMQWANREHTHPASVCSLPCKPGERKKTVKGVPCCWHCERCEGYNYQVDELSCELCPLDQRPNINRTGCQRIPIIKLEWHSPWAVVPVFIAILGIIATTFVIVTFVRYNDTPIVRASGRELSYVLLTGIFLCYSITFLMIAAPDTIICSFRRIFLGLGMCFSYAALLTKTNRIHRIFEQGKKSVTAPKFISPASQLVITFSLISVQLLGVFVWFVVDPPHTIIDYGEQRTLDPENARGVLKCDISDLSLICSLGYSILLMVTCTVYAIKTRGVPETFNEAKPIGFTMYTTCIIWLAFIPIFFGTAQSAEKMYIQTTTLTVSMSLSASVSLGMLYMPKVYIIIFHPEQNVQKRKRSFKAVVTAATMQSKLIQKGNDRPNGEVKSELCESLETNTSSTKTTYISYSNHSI

| Compound | z-score |
| --- | --- |
| O=C(COc1ccc2c(c1)CCC2)NCc1ccc(Cl)cc1 | -0.106 |
| COc1ccc(NC(=O)C(Sc2ccccc2)c2ccccc2)c(OC)c1 (configuration not stated) | 2.25 |
| O=C(Nc1cn(-c2ccccc2)nc1-c1ccc(F)cc1)c1ccccc1 | -0.338 |
| CN(C)c1ccc(N/C=C/C(=O)C(C)(C)C)cc1 | -0.351 |
| O=C(Nc1ccccc1-c1ccccc1)C1CCCN(c2ncccn2)C1 (configuration not stated) | -1.07 |
| Cc1cc(C)cc(NC(=O)c2ccc(S(=O)(=O)C(F)F)cc2)c1 | -0.06 |
| Cc1ccc(N(Cc2ccc([N+](=O)[O-])cc2)C(=O)c2ccco2)cc1 | -0.563 |
| CC(C)(C)c1ccc(-c2nnc(NC(=O)c3ccccc3)s2)cc1 | 0.203 |
| COc1ccc2nc(N3CCCC(C(=O)NCCCN4CCN(C)CC4)C3)sc2c1 (configuration not stated) | 0.495 |
| CCOc1ccc(OCC)c(NS(=O)(=O)c2ccc3c(c2)n(C)c(=O)c(=O)n3C)c1 | 0.166 |
| CCOC(=O)C1=C(C)NC2=C(C(=O)CCC2)C1c1ccsc1 (configuration not stated) | -0.544 |
| N#Cc1ccc(N/N=C/c2cn(-c3ccccc3)nc2-c2ccccc2)c([N+](=O)[O-])c1 | -0.163 |
| O=C(c1cc2ccccc2oc1=O)N(Cc1cccs1)C1CCS(=O)(=O)C1 (configuration not stated) | -0.217 |
| CCOC(=O)Cn1c(=O)oc2cc(S(=O)(=O)N3CCc4ccccc43)ccc21 | -0.295 |
| COC(=O)c1ccc(-n2cncn2)c(F)c1 | 0.26 |
| COc1ccc2nc(-c3ccccc3)cc(OC)c2c1 | -0.624 |
| Oc1c(C(c2ccccc2)N2CCc3ccccc3C2)sc2ncnn12 (configuration not stated) | 0.127 |
| C[n+]1ccccc1C1CCCC/C1=N\Nc1ccc([N+](=O)[O-])cc1[N+](=O)[O-] (configuration not stated) | -0.113 |
| NS(=O)(=O)c1cccc(NC(=O)CSc2ncc(C(F)(F)F)cc2Cl)c1 | 0.0638 |
| Cc1ccc(C)c(Cn2nnc3c(=O)[nH]c(C4CCN(C(=O)c5cccs5)CC4)nc32)c1 | -0.45 |
| CC(C)C(NC(=O)CSc1ccc(Cl)cc1)C(C)C | 0.0234 |
| Cc1cccc(C(=O)NC(=S)NCc2cccnc2)c1 | 0.247 |
| Cc1cccc(Nc2c([N+](=O)[O-])c(=O)n(C)c3ccccc23)c1 | -0.787 |

| Compound | z-score |
| --- | --- |
| CCOC(=O)N1C=CC(C)=C[C@@H]2[C@@H](N3C(=O)c4ccccc4C3=O)C(=O)N21 | -0.466 |
| CCCCNC(=O)CN(CCc1ccccc1)S(C)(=O)=O | -0.0858 |
| Cc1ccn2cc(CNS(=O)(=O)c3ccc(Cl)s3)nc2c1 | -0.172 |
| COc1ccc(-c2nc(CN3CCCC(C(=O)NC4CCCC4)C3)c(C)o2)cc1 (configuration not stated) | -0.473 |
| CCCCN1C(=O)C(=O)N(c2ccccc2)C1=S | -0.31 |
| CCOC(=O)C1=C(CSc2nc(CC)c(C)cc2C#N)OC(N)=C(C#N)C1c1ccccc1 (configuration not stated) | -0.373 |
| NC(=O)NC(c1ccccc1)c1ccccc1 | 1.66 |
| COc1cc(C(=O)NCCCNc2nc3cc(C)cc(C)c3cc2C#N)cc(OC)c1OC | -0.863 |
| Cc1ccc(OCCCN(C)C)c(Br)c1 | 1.17 |
| Cc1nc([N+](=O)[O-])c(Br)n1CC(=O)c1ccc(Br)cc1 | -0.183 |
| Cc1c(/C=C/C(=O)c2ccccc2)cnn1C | -0.156 |
| COc1ccccc1N1C(=O)C2C3CC(c4ccccc4)C(C3)C2C1=O (configuration not stated) | -0.186 |
| Cn1c(CNC(=O)c2ccco2)nnc1SCC(=O)Nc1cccc(Br)c1 | -0.244 |
| CCOC(=O)/C(=N/Nc1ccc(C)cc1)S(=O)(=O)c1ccc(Cl)cc1 | 1.32 |
| CCCCOc1cccc(-c2nnc(NC(=O)CSc3ccc(C)cc3)s2)c1 | -0.169 |
| COC(=O)c1cc(NC(=O)Cc2ccc(OC)c(OC)c2)cc(C(=O)OC)c1 | -1.07 |
| COc1cccc(N(CC(=O)O)S(=O)(=O)c2ccccc2)c1 | -0.0181 |
| CCCn1nnc(NC(=O)c2ccc(OC)cc2)n1 | -0.0151 |
| COc1cc(/C=N\Nc2nc3ccccc3o2)cc(OC)c1OC | 0.867 |
| Cc1cc(C)cc(OCC(=O)N2CCCCCC2)c1 | -0.242 |
| CCOC(=O)N1CCN(S(=O)(=O)c2ccc(C)c(C)c2)CC1 | 0.519 |
| CN(C)C(=O)N1CCN(C(=O)N2CCOCC2)CC1 | -0.134 |
| COC(=O)Oc1ccc(/C=N/NC(=O)CSCc2ccc(Cl)cc2)cc1OC | -0.334 |

| Compound | z-score |
| --- | --- |
| CCC(=O)Nc1ccc(S(=O)(=O)NCC2CCCO2)cc1 (configuration not stated) | -0.339 |
| CNc1c([N+](=O)[O-])cnn1-c1ccc(Cl)cc1 | -0.122 |
| CC12CC(NC(=O)N1Cc1ccccc1)c1ccccc1O2 (configuration not stated) | 0.0105 |
| COC(=O)CSc1snnc1-c1ccc(F)cc1 | -1.33 |
| C/C(=N\NC(=O)c1cc(-c2cccnc2)nc2ccccc12)c1ccc(O)cc1O | -0.235 |
| COc1ccccc1NC(=O)c1ccc(CN(c2cc(Cl)ccc2C)S(=O)(=O)c2ccccc2)cc1 | -0.303 |
| Cc1csc2nc(CCNS(=O)(=O)c3cccs3)cn12 | 0.325 |
| CCCCCCn1c(COc2ccccc2F)nnc1SCC(=O)c1c(N)n(C)c(=O)n(C)c1=O | -0.228 |
| COc1ccc(/C=C\C(=O)c2c(O)ccc3c(C)cc(=O)oc23)cc1 | -0.279 |
| CO/N=C/c1ccc(N2CCN(C(=O)c3cccc(C(F)(F)F)c3)CC2)c([N+](=O)[O-])c1 | -0.0941 |
| O=C(COc1ccc(Br)cc1)c1ccc2c(c1)CCCC2 | -0.191 |
| CCOc1ccc2nc(/N=C/c3c(C)[nH]n(-c4ccccc4)c3=O)sc2c1 | active: 13.8 |
| COc1ccc(-n2c(N)c(C(=O)NCC3CCCO3)sc2=S)cc1 (configuration not stated) | 0.0625 |
| O=C(COC(=O)c1ccco1)NCc1cccs1 | 0.528 |
| Cc1ccc(CNC(=O)/C=C/c2ccc(Br)o2)cc1 | -0.294 |
| c1ccc(CCn2nnnc2CN2CCc3ccccc32)cc1 | -1.51 |
| CCCC(C1=C(O)CC(C)(C)CC1=O)C1C(=O)CC(C)(C)CC1=O (configuration not stated) | -0.0698 |
| Clc1ccccc1CSc1snnc1-c1ccccc1 | -0.0536 |
| O=C(Cn1cnc2c(oc3ccccc32)c1=O)N1CCN(c2ccccc2)CC1 | 1.2 |
| CCOC(=O)c1[nH]c2ccccc2c1N=CN(C)C | -0.24 |
| O=C(CC(NC(=O)c1ccccc1Cl)c1ccccc1)NCCc1ccc(Cl)cc1 (configuration not stated) | -0.556 |
| CCN1CCN(C(=S)c2ccc(OCC(=O)N3CCOCC3)cc2)CC1 | -0.363 |
| Cc1cccc(OCC(=O)NC(Cc2ccccc2)C(=O)O)c1 (configuration not stated) | -0.031 |

| Compound | z-score |
| --- | --- |
| Cc1nn(C)cc1CNC(=O)Nc1ccc(Cl)c(Cl)c1 | 2.06 |
| NC(=S)Nc1cc2ccccc2c2ccccc12 | 0.0523 |
| COC(=O)c1ccccc1NC(=O)CN1CCOCC1 | 0.0182 |
| CCCCN(C)CCCNC(=O)CCn1nc(-c2ccccc2)ccc1=O | 0.0635 |
| COc1ccc(CN(C(=O)c2cc3ccccc3oc2=O)C2CCCCC2)cc1OC | -1.2 |
| Cc1ccc(S(=O)(=O)N2CCN(C(=O)CCC(=O)OCC(=O)Nc3cccc(C#N)c3)CC2)cc1 | -0.106 |
| O=c1cc(C(F)(F)F)oc2c1ccc1ccccc12 | -0.211 |
| O=C(O)CCS(=O)(=O)Cc1ccccc1F | -0.777 |
| CN(C)C(CNC(=O)Nc1cccc(Cl)c1)c1cccnc1 (configuration not stated) | 0.988 |
| CCOc1ccc(N(Cc2cc3ccc(C)cc3[nH]c2=O)S(C)(=O)=O)cc1 | -0.166 |
| Oc1cccc(/C=N/Nc2cc(N3CCCC3)nc(N3CCCC3)n2)c1 | -0.0652 |
| COc1ccc(-c2cc3nc4c(c(=O)n3[nH]2)CCC4)cc1 | 1.13 |
| COCCNC(=O)c1c[nH]c2ccc(S(=O)(=O)N3CCC4(CC3)OCCO4)cc2c1=O | -0.33 |
| O=C1C2C3C=CC(C3)C2C(=O)N1CCCCN1C(=O)C2C3C=CC(C3)C2C1=O (configuration not stated) | -0.0856 |
| COc1ccc(S(=O)(=O)NCCCCCC(=O)NCCCN2CCOCC2)cc1 | 2.89 |
| O=C1CN(c2ccccc2Cl)C(=O)CN1c1ccccc1Cl | 0.348 |
| Cc1cc(C)nc(N2CCCC(C(=O)NCCc3ccc(F)cc3)C2)n1 (configuration not stated) | active: 3.52 |
| CCOc1ccc(Nc2cc(=O)n(C)c(=O)n2C)cc1 | -0.164 |
| CCc1nnc(NC(=O)c2ccc(S(=O)(=O)N3CCCCCC3)cc2)s1 | -0.371 |
| COc1ccc(/C=C2\SC(=S)N(CCC(=O)NC3=NCCS3)C2=O)cc1OC | -0.134 |
| CCCCOc1ccc(/C=C/C(=O)OCC(=O)N2CC(=O)Nc3ccccc32)cc1OCC | -0.338 |
| Cc1cc(C)n(C(=O)CNC(=O)c2cccs2)n1 | -0.0552 |
| Clc1ccc(SCCCCN2CCOCC2)cc1 | -0.0426 |

| Compound | z-score |
| --- | --- |
| CCCS(=O)(=O)N1CCCC(C(=O)NC(C)c2ccc3c(c2)OCCO3)C1 (configuration not stated) | -0.27 |
| CCN(CC)S(=O)(=O)c1cc(C(=O)Nc2nncs2)c(Cl)cc1Cl | -0.233 |
| O=C(NCc1ccco1)c1cc(-c2ccc(Cl)cc2)on1 | -0.403 |
| CCOc1ccc(C(=O)OCC(=O)c2c(N)n(C)c(=O)n(C)c2=O)cc1OCC | 0.0392 |
| CC(C)=CC(=O)Nc1nnc(C)s1 | 0.00638 |
| Cc1nc2ccccc2n1/N=C/c1ccc([N+](=O)[O-])o1 | -0.175 |
| CC(=O)N1CCc2ccc(S(=O)(=O)N3CC(C)OC(C)C3)cc21 (configuration not stated) | 0.441 |
| CN(C)c1ccc(C(=S)NCc2ccco2)cc1 | 0.336 |
| O=C(NNS(=O)(=O)c1cccc(Cl)c1Cl)c1cccc(S(=O)(=O)N2CCOCC2)c1 | -0.174 |
| Cc1ccc(NC(=O)CSc2nnc(C(F)(F)F)n2C)cc1[N+](=O)[O-] | 0.0206 |
| NS(=O)(=O)c1ccc(NS(=O)(=O)/C=C/c2ccccc2)cc1 | -0.425 |
| CCn1cc(CN(C)C(=O)/C=C/c2ccc([N+](=O)[O-])cc2)c(C)n1 | -0.0931 |
| CC(=O)N1N=C(c2ccc(Cl)cc2)OC1c1ccc(C(C)C)cc1 (configuration not stated) | -0.945 |
| COCCn1nnnc1CN1CCC(C)CC1 | 0.321 |
| COCCNC(=O)C(=O)NCCN1CCOCC1 | -0.127 |
| COc1ccc(-c2cc(C(F)F)n3ncc(C(=O)N4CCN(C)CC4)c3n2)cc1 | -0.201 |
| O=C(C[n+]1ccsc1)c1ccccc1 | -0.136 |
| Cc1ccc(CN=Cc2[nH]c3ccc(Br)c(Cl)c3c2O)cc1 | -0.163 |
| CCCCn1c(SCC(=O)Nc2ccc3c(c2)OCO3)nc2c1c(=O)n(C)c(=O)n2C | 0.0796 |
| O=C(CCS(=O)(=O)Cc1ccccc1)NCc1ccco1 | -0.123 |

From PubChem BioAssay AID488969 (Vanderbilt High Throughput Screening Facility, 2010)
